PubChem BioAssay AID1347073 (National Center for Advancing Translational Sciences (NCATS), 2019)
The whole screen tested about 45,000 compounds, of which about 200 (0.44%) were called active. About 7% were inconclusive and are not listed. Calls come from the whole dose curve; as a rule, active = well fitted activation curve with a large enough effect; inconclusive = small, poorly fitted or top-dose-only effect; inactive = no such curve, though single readings can be large or run the other way. The list shows a part of the results.

assay: qHTS of TDP-43 Inhibitors: NCGC Sytravon Library Screen; conditions: yeast TDP-43 toxicity rescue, BacTiter-Glo growth, 24 h; series mostly up to 46.1 µM; growth rescue (activation): at the top concentration; note: 0% is about no effect; nearly all actives have a fitted effect of over 55% in size
Summary of the method: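 TDP-43-expressing yeast, pregrown in raffinose, seeded at OD600 0.02 in galactose medium with compound for 24 hr at 30 deg C. Growth read by BacTiter-Glo luminescence, so rescue of toxicity appears as activation.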

SMILES | growth rescue (activation)
Cc1cc(F)ccc1S(=O)(=O)Nc1ccc(C(=O)N2CCCCC2)cc1 | inactive: 4.64%
Cc1cccc(NCc2ccc(Br)cc2)n1 | inactive: -6.6%
CCOC(=O)c1c2c3c(cccc3n(C)c1=O)C(=O)c1ccccc1-2 | inactive: 8.33%
Cc1ccccc1CNC(=O)c1ccc2nc([C@@H]3O[C@H](CO)[C@H](O)[C@H](O)[C@H]3O)[nH]c2c1 | inactive: -8.18%
CCCCCCCCc1nc(SCC(C)=O)n[nH]1 | inactive: 17.3%
CC1(C)CC(=O)C2=C(C1)NC(SCC(=O)Nc1ccccc1)=C(C#N)C2c1ccco1 (stereo not drawn) | inactive: 19.5%
Cc1cc(=O)oc2c3c(cc(OCC(=O)NC(C)C)c12)OC(C)(C)CC3 | inactive: -12.4%
NS(=O)(=O)c1ccc(CCNC(=O)CN2CCN(c3ccccc3F)CC2)cc1 | inactive: 14.1%
COc1ccc(OC)c(S(=O)(=O)N2CCCC(C(=O)NC3CC3)C2)c1 (stereo not drawn) | inactive: -4.21%
COc1cccc(NC(=O)COC(=O)CCSc2ccccc2)c1 | inactive: 13.7%
CCCC(C)(C)C(=O)N1CCC1(C)C(=O)NS(=O)(=O)c1ccc(Cl)cc1 (stereo not drawn) | inactive: 0.7%
COc1cc(C)c(NC(=S)Nc2ccc(C)c(Cl)c2)cc1OC | inactive: -1.11%
O=C(CCCn1cnc([N+](=O)[O-])n1)Nc1cc(Cl)ccc1O | inactive: 10.5%
CCOC(=O)C1CCCN(C(=O)c2oc3ccccc3c2C)CC1 (stereo not drawn) | inactive: 29.7%
O=C1c2ccc3c4c(ccc(c24)C(=O)N1c1cccc(O)c1)CC3 | inactive: -24.6%
Cc1ccc2nc(N3CCN(c4ccccc4)CC3)c(C=O)c(=O)n2c1 | inactive: -1.07%
O=C(COC(=O)c1ccccn1)Nc1nc(-c2ccccc2)cs1 | inactive: 0.916%
CNc1ccc2nnc(C(F)(F)C(F)(F)C(F)(F)F)n2n1 | inactive: 12.4%
Cc1cc(C)c(C2=Nn3c(C)nnc3SC2C)cc1C (stereo not drawn) | inactive: 9.91%
N#CCCN(C(=O)COC(=O)CSc1ccc(Cl)cc1)c1ccccc1 | inactive: 16.6%
CCOC(=O)c1cnn(-c2ncnc3sc(CC)cc23)c1N | inactive: 15.1%
COc1ccc(S(=O)(=O)N2CCN(C(=O)NCc3ccc(C)cc3)CC2)cc1 | inactive: 1.87%

SMILES | growth rescue (activation)
CN(C(=O)COC(=O)CCC(=O)c1ccc(F)cc1)C1CCCCC1 | inactive: 8.77%
COc1ccc(S(=O)(=O)NC(=O)C2(C)CCN2C(=O)c2ccc(C(F)(F)F)nc2C)cc1 (stereo not drawn) | inactive: 4.86%
Cc1ccc(N2CC(C(=O)Nc3ccc(S(=O)(=O)Nc4nccs4)cc3)CC2=O)cc1C (stereo not drawn) | inactive: -5.36%
O=C(CSc1nnc(NC(=O)c2ccccc2)s1)NC1CCCC1 | inactive: -1.28%
CC(NC(=O)c1ccncc1)c1ccc(Cl)cc1Cl (stereo not drawn) | inactive: -2.79%
O=S(=O)(Cc1ccccc1)N1CCN(c2ncccn2)CC1 | inactive: 14%
Cc1ccc(NNC(=O)C(O)(c2cccc(C(F)(F)F)c2)c2cccc(C(F)(F)F)c2)cc1 | inactive: 16%
CCOC(=O)C1C(c2ccccc2O)NC(=O)NC1(O)C(F)(F)F (stereo not drawn) | inactive: 10.2%
O=C(COC(=O)c1ccc(Cl)nc1)Nc1ccc(N2CCCCC2)cc1 | inactive: -8.91%
O=C(COc1ccc(Cl)cc1Cl)NCCCNC(=O)c1cnccn1 | inactive: 2.52%
Cc1onc(-c2ccccc2Cl)c1C(=O)Nc1ccccc1O | inactive: -13.4%
Cc1ccccc1NCCC(=O)Nc1ccc(Cl)cc1 | inactive: 15.9%
CC(=O)Nc1ccc2c(COC(=O)CC3Sc4ccccc4NC3=O)cc(=O)oc2c1 (stereo not drawn) | inactive: -16%
COCCNC(=O)C(c1ccc(O)cc1)N(C(=O)CCC(=O)Nc1nccs1)c1cccc(C)c1 (stereo not drawn) | inactive: 13.4%
O=C(O)c1cccc(NC(=S)N/N=C/c2cccnc2)c1 | inactive: 5.01%
COc1ccc(N(C(=O)c2ccco2)C(C(=O)NC2CCCC2)c2cccs2)c(OC)c1 (stereo not drawn) | inactive: 9.26%
COc1cccc(C(=O)N2CCC(O)(c3cccnc3)CC2)c1 | inactive: 4.07%
CN1CCNC(=O)C1CC(=O)NCCc1ccccc1F (stereo not drawn) | inactive: 7.62%
CNC(=O)c1cccc2nc3ccccc3nc12 | inactive: 12.5%
C/C(Sc1nnc(Cc2ccccc2)o1)=C(\O)c1ccccc1 | inactive: 2.22%
CN(C(=O)CN1CCN(c2cc(-c3cccc4oc5ccccc5c34)ncn2)CC1)c1ccccc1 | inactive: 2.79%
CC(C)Cn1c(N)c(C(=O)COC(=O)[C@@H]2CCCN2C(=O)c2cccs2)c(=O)n(C)c1=O | inactive: 6.21%

SMILES | growth rescue (activation)
CC(=O)N[C@@H](Cc1c[nH]c2ccccc12)C(=O)OCC(=O)Nc1ccc2c(c1)OCO2 | inactive: 5.27%
CCN(CC)C(=O)CSc1nc(N)c(C(=O)Nc2ccc(OC)cc2)s1 | inactive: 22.8%
CCCCOCCCNC(=O)N[C@H](C(=O)O)C(C)CC (stereo partly drawn) | inactive: 1.86%
CSCCNCc1c(C(=O)N2CCOCC2)nc2c(C)cccn12 | inactive: -6.07%
c1ccc2c(c1)nc(N1CCCCCC1)c1ccccc12 | inactive: -22.2%
COc1ccc(-c2ccc3nncn3c2)cn1 | inactive: -9.9%
Cc1ccnc(Nc2nc(-c3ccc(Cl)cc3)cs2)c1 | inactive: 15%
COc1ccc(NC(=O)c2cc(C3CCCCN3S(=O)(=O)c3ccc(C#N)cc3)on2)c(C)c1 (stereo not drawn) | inactive: 16%
COc1ccc(C/C(N)=N/OC(=O)CCc2ccccc2)cc1 | inactive: -35.3%
Cc1ccc(S(=O)(=O)NC2CCCCC2)c(C)c1NS(C)(=O)=O | inactive: -46.5%
O=C1N(c2cccc(Cl)c2)C(c2ccccc2)N2CCCN12 (stereo not drawn) | inactive: 7.3%
CCC(=O)Nc1cc(-c2nn(C)c(=O)c3ccccc23)ccc1N1CCOCC1 | inactive: 12.1%
CNC(=O)c1ccc(=O)n(Cc2cccc(C(F)(F)F)c2)c1 | inactive: 1.41%
CC(C)(C)c1cc(C(=O)C[n+]2ccc(C(=O)NCCCO)cc2)cc(C(C)(C)C)c1O | inactive: 30.9%
COc1cccc(OC)c1NC(=O)CN1CCN(C)CC1 | inactive: -13.6%
CC(C)Cc1nnc(NC(=O)CCNC(=O)c2ccco2)s1 | inactive: 8.56%
CC(C)[C@H](NS(=O)(=O)c1ccc2c(c1)OCCO2)C(=O)OCC(=O)Nc1cc(Cl)ccc1Cl | inactive: 9.25%
CCOc1cc(/C=C/C(=O)Nc2ccc(C(=O)NCCN(CC)CC)cc2)ccc1OCC(C)C | inactive: 15.2%
CCCc1ccc(C(O)c2ncc(-c3ccc(C)cc3)[nH]2)cc1 (stereo not drawn) | inactive: 12.9%
COCCN(CCOC)C(=S)Nc1cc(S(=O)(=O)N(C)C)ccc1C | inactive: 6.28%
NS(=O)(=O)c1ccc(NC(=S)N2CCN(c3cccc(Cl)c3)CC2)cc1 | inactive: 19%
C[C@@H]1CCCCCCCCCCC1=O | inactive: -0.811%

SMILES | growth rescue (activation)
CCCCn1c(N)c(N(CC)C(=O)c2c(C)noc2C)c(=O)[nH]c1=O | inactive: -6.05%
COc1ccc(NC(=O)c2oc3ccc(S(=O)(=O)N4CCOCC4)cc3c2C)cc1 | inactive: 13.7%
CN(CCOc1ccc(Cl)cc1)CC(O)c1ccccc1 (stereo not drawn) | inactive: 4.2%
COc1cccc(NC(=O)CN(C)S(=O)(=O)c2ccc3nc(C)sc3c2)c1 | inactive: -1.05%
O=S(=O)(NC1CCCCC1N1CCOCC1)c1ccc(Cl)cc1 (stereo not drawn) | inactive: -12.6%
COc1ccc(OC)c(CN2CCCC(C(=O)c3ccccc3SC)C2)c1 (stereo not drawn) | inactive: 7.78%
O=C(O)C(Cc1ccccc1)N1C(=O)C2CCCCC2C1=O (stereo not drawn) | inactive: -1.42%
O=C(CNC(=O)c1ccc(Cl)cc1Cl)OCc1cn2cc(Br)ccc2n1 | inactive: 22.2%
Cc1cc(C)cc(-n2c(C)cc(/C=N/NC(=O)c3ccncc3)c2C)c1 | inactive: 18.4%
Cc1ccc(NC(=O)C2CCN(C(=O)c3cccs3)CC2)cc1 | inactive: 6.31%
CC(C)NC(=O)COC(=O)c1ccc(S(=O)(=O)N2CCCC2)cc1 | inactive: 5.3%
COc1cccc(NC(=O)C2(C)CCCN2C(=O)C(C)C)c1OC (stereo not drawn) | inactive: -4.72%
O=C(OCC(=O)N1CCOCC1)c1ccc(O)cc1 | inactive: 4.6%
Cc1ccc(Sc2ncccc2C(=O)NC2CCCCCC2)cc1C | inactive: 7.43%
CCN(CC)S(=O)(=O)c1ccc(N2CCOCC2)c(NC(=O)c2cccc(C#N)c2)c1 | inactive: -3.92%
CCOc1ccccc1NC(=O)c1c(NC(=O)c2ccccc2C)sc2c1CCC(C)C2 (stereo not drawn) | inactive: 2.66%
CCOC(=O)c1ccc(S(=O)(=O)NNC(=O)COc2ccc(C)cc2)cc1 | inactive: 11.9%
CC(NC(=O)CSc1ncccn1)c1ccc2c(c1)OCO2 (stereo not drawn) | inactive: 21.5%
Cc1c(Cl)cccc1NC(=O)CSc1nncn1-c1ccccn1 | inactive: 12.2%
Cc1ccc(C(=O)N(Cc2ccc(N(C)C)cc2)Cc2ccco2)cc1 | inactive: 5.75%
CCN1CCN(C(=O)Cn2nc(-c3ccc(Cl)cc3)ccc2=O)CC1 | inactive: -26.8%
COc1ccccc1/C=C1\SC(=S)N(N2C(=O)CCCC2=O)C1=O | inactive: 7.03%

SMILES | growth rescue (activation)
COc1ccc(C2Nc3ccccc3C(=O)N2Cc2ccco2)cc1CN1C(=O)c2ccccc2C1=O (stereo not drawn) | inactive: 9.35%
O=C(Nc1ccc(N2CCOCC2)cc1)c1cccc(S(=O)(=O)N2CCCCC2)c1 | inactive: 25.7%
COc1nc(-c2ccccc2)ncc1S(=O)(=O)c1ccccc1 | inactive: 1.31%
O=C(Nc1cccc(F)c1)Nc1ccc2c(c1)C(=O)OC2 | inactive: 10.1%
COc1ccc(NC(=O)c2cc3c(CO)cnc(C)c3oc2=Nc2cccc(C)c2)c(OC)c1 | inactive: -0.806%
CS(=O)(=O)N(CC(=O)N1CCCCC1)Cc1ccccc1 | inactive: -13.5%
CCOC(=O)c1c(C)[nH]c(C(=O)N/N=C/c2cc([N+](=O)[O-])ccc2O)c1C | inactive: -2.77%
COc1ccc(/C=C/c2nnc(NC(=O)COc3cccc(C)c3)s2)cc1 | inactive: -29.7%
CC(C)(C)SCCNC(=O)CN(c1ccccc1)S(=O)(=O)c1ccccc1 | inactive: 14.8%
CCN1CCCC1CNC(=O)CN(C)S(=O)(=O)c1ccc(Cl)cc1 (stereo not drawn) | inactive: -3.46%
COc1ccccc1CNC(=O)N1CCN(c2ccccc2Cl)CC1 | inactive: 4.67%
Cc1cccc2cncc(OCc3nnc(SC(F)F)n3C)c12 | inactive: -18.8%
O=S(=O)(c1cccs1)N1CCN(c2ccccc2Cl)CC1 | inactive: -26%
CCCc1cc(=O)[nH]c(SCc2nc3ccccc3o2)n1 | inactive: 18.7%
COc1cccc(NC(=O)c2ccc(NC(=O)C(C)(C)C)cc2)c1 | inactive: -6.6%
Cc1cc(F)ccc1S(=O)(=O)N(CC(=O)N1CCOCC1)CC(=O)N1CCOCC1 | inactive: -3.77%
Cc1cc(Cn2nnnc2-c2ccncc2)cc(C)c1O | inactive: -3.61%
CNc1ccc(C(=O)OCC(=O)NC(=O)NC2CCCCC2)cc1[N+](=O)[O-] | inactive: 2.21%
CC1(C(=O)Nc2ccc3c(c2)OCCO3)CCN1C(=O)CC1CCCC1 (stereo not drawn) | inactive: 23%
Cc1ccc(NC(=O)c2c(C)nc3ccccn23)cc1C | inactive: 4.58%
